# Experimental data as given in publication PMC3519786, “Novel Interactions between FOXM1 and CDC25A Regulate the Cell Cycle” (PLoS ONE, 2012).
# No constants are given. Whether binding was seen depends on the method and setting. Binding seen in cells or lysates may run through a third protein. Some binding calls cover weakened binding; strength is not graded here. Tags and fused reporters may be left off the sequences shown.
# T1: endogenous CDC25A (human (endogenous in U2OS)) (UniProt P30304)
# T1 sequence: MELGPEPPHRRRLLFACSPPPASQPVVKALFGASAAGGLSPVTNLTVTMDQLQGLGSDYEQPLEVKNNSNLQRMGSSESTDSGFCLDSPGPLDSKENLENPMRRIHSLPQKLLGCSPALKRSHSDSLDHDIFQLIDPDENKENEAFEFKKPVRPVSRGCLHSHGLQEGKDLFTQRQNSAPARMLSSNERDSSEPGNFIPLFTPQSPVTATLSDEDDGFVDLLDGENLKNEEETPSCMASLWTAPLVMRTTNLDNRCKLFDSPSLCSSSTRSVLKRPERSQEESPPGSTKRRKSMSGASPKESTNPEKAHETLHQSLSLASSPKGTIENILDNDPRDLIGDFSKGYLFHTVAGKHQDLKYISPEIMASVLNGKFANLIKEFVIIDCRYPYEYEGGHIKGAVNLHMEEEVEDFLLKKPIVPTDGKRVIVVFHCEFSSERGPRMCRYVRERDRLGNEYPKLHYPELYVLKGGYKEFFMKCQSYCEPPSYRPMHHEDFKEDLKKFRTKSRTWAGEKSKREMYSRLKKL
# T2: FOXM1-3×FLAG (human) (UniProt Q08050)
# T2 sequence: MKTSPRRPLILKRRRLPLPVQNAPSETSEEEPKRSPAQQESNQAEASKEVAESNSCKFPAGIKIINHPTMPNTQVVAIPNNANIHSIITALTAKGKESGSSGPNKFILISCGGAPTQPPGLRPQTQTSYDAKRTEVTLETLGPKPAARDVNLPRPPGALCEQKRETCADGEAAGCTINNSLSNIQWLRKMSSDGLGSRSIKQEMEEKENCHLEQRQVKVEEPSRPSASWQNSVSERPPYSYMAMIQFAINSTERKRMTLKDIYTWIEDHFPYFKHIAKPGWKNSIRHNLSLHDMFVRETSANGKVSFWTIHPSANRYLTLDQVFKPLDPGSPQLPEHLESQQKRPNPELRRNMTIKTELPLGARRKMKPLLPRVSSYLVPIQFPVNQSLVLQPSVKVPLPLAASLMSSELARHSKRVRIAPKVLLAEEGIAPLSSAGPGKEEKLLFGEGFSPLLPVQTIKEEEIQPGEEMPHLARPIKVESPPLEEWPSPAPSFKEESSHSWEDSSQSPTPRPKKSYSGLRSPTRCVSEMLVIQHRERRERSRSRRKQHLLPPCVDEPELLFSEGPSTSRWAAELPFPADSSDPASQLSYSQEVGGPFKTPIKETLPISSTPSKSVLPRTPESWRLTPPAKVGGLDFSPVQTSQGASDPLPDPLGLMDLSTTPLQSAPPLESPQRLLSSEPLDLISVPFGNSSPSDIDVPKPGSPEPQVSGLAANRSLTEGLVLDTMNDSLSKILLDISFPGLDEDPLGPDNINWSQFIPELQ
# Biological target: T1, endogenous CDC25A (human (endogenous in U2OS))
# Experiment: co-IP; U2OS transfected with FOXM1-3×FLAG (wild-type or mutant), 48 h; lysates precipitated with anti-CDC25A antibody agarose; blot with anti-FLAG
row,Binder,binding
1,"FOXM1-3×FLAG (wild-type), expressed in U2OS (protein, UniProt Q08050 1-763) MKTSPRRPLILKRRRLPLPVQNAPSETSEEEPKRSPAQQESNQAEASKEVAESNSCKFPAGIKIINHPTMPNTQVVAIPNNANIHSIITALTAKGKESGSSGPNKFILISCGGAPTQPPGLRPQTQTSYDAKRTEVTLETLGPKPAARDVNLPRPPGALCEQKRETCADGEAAGCTINNSLSNIQWLRKMSSDGLGSRSIKQEMEEKENCHLEQRQVKVEEPSRPSASWQNSVSERPPYSYMAMIQFAINSTERKRMTLKDIYTWIEDHFPYFKHIAKPGWKNSIRHNLSLHDMFVRETSANGKVSFWTIHPSANRYLTLDQVFKPLDPGSPQLPEHLESQQKRPNPELRRNMTIKTELPLGARRKMKPLLPRVSSYLVPIQFPVNQSLVLQPSVKVPLPLAASLMSSELARHSKRVRIAPKVLLAEEGIAPLSSAGPGKEEKLLFGEGFSPLLPVQTIKEEEIQPGEEMPHLARPIKVESPPLEEWPSPAPSFKEESSHSWEDSSQSPTPRPKKSYSGLRSPTRCVSEMLVIQHRERRERSRSRRKQHLLPPCVDEPELLFSEGPSTSRWAAELPFPADSSDPASQLSYSQEVGGPFKTPIKETLPISSTPSKSVLPRTPESWRLTPPAKVGGLDFSPVQTSQGASDPLPDPLGLMDLSTTPLQSAPPLESPQRLLSSEPLDLISVPFGNSSPSDIDVPKPGSPEPQVSGLAANRSLTEGLVLDTMNDSLSKILLDISFPGLDEDPLGPDNINWSQFIPELQ",binds
2,"FOXM1(T600A)-3×FLAG (protein, UniProt Q08050 1-763) MKTSPRRPLILKRRRLPLPVQNAPSETSEEEPKRSPAQQESNQAEASKEVAESNSCKFPAGIKIINHPTMPNTQVVAIPNNANIHSIITALTAKGKESGSSGPNKFILISCGGAPTQPPGLRPQTQTSYDAKRTEVTLETLGPKPAARDVNLPRPPGALCEQKRETCADGEAAGCTINNSLSNIQWLRKMSSDGLGSRSIKQEMEEKENCHLEQRQVKVEEPSRPSASWQNSVSERPPYSYMAMIQFAINSTERKRMTLKDIYTWIEDHFPYFKHIAKPGWKNSIRHNLSLHDMFVRETSANGKVSFWTIHPSANRYLTLDQVFKPLDPGSPQLPEHLESQQKRPNPELRRNMTIKTELPLGARRKMKPLLPRVSSYLVPIQFPVNQSLVLQPSVKVPLPLAASLMSSELARHSKRVRIAPKVLLAEEGIAPLSSAGPGKEEKLLFGEGFSPLLPVQTIKEEEIQPGEEMPHLARPIKVESPPLEEWPSPAPSFKEESSHSWEDSSQSPTPRPKKSYSGLRSPTRCVSEMLVIQHRERRERSRSRRKQHLLPPCVDEPELLFSEGPSTSRWAAELPFPADSSDPASQLSYSQEVGGPFKAPIKETLPISSTPSKSVLPRTPESWRLTPPAKVGGLDFSPVQTSQGASDPLPDPLGLMDLSTTPLQSAPPLESPQRLLSSEPLDLISVPFGNSSPSDIDVPKPGSPEPQVSGLAANRSLTEGLVLDTMNDSLSKILLDISFPGLDEDPLGPDNINWSQFIPELQ",binds
3,"FOXM1(T611A)-3×FLAG (protein, UniProt Q08050 1-763) MKTSPRRPLILKRRRLPLPVQNAPSETSEEEPKRSPAQQESNQAEASKEVAESNSCKFPAGIKIINHPTMPNTQVVAIPNNANIHSIITALTAKGKESGSSGPNKFILISCGGAPTQPPGLRPQTQTSYDAKRTEVTLETLGPKPAARDVNLPRPPGALCEQKRETCADGEAAGCTINNSLSNIQWLRKMSSDGLGSRSIKQEMEEKENCHLEQRQVKVEEPSRPSASWQNSVSERPPYSYMAMIQFAINSTERKRMTLKDIYTWIEDHFPYFKHIAKPGWKNSIRHNLSLHDMFVRETSANGKVSFWTIHPSANRYLTLDQVFKPLDPGSPQLPEHLESQQKRPNPELRRNMTIKTELPLGARRKMKPLLPRVSSYLVPIQFPVNQSLVLQPSVKVPLPLAASLMSSELARHSKRVRIAPKVLLAEEGIAPLSSAGPGKEEKLLFGEGFSPLLPVQTIKEEEIQPGEEMPHLARPIKVESPPLEEWPSPAPSFKEESSHSWEDSSQSPTPRPKKSYSGLRSPTRCVSEMLVIQHRERRERSRSRRKQHLLPPCVDEPELLFSEGPSTSRWAAELPFPADSSDPASQLSYSQEVGGPFKTPIKETLPISSAPSKSVLPRTPESWRLTPPAKVGGLDFSPVQTSQGASDPLPDPLGLMDLSTTPLQSAPPLESPQRLLSSEPLDLISVPFGNSSPSDIDVPKPGSPEPQVSGLAANRSLTEGLVLDTMNDSLSKILLDISFPGLDEDPLGPDNINWSQFIPELQ",binds
4,"FOXM1(T620A)-3×FLAG (protein, UniProt Q08050 1-763) MKTSPRRPLILKRRRLPLPVQNAPSETSEEEPKRSPAQQESNQAEASKEVAESNSCKFPAGIKIINHPTMPNTQVVAIPNNANIHSIITALTAKGKESGSSGPNKFILISCGGAPTQPPGLRPQTQTSYDAKRTEVTLETLGPKPAARDVNLPRPPGALCEQKRETCADGEAAGCTINNSLSNIQWLRKMSSDGLGSRSIKQEMEEKENCHLEQRQVKVEEPSRPSASWQNSVSERPPYSYMAMIQFAINSTERKRMTLKDIYTWIEDHFPYFKHIAKPGWKNSIRHNLSLHDMFVRETSANGKVSFWTIHPSANRYLTLDQVFKPLDPGSPQLPEHLESQQKRPNPELRRNMTIKTELPLGARRKMKPLLPRVSSYLVPIQFPVNQSLVLQPSVKVPLPLAASLMSSELARHSKRVRIAPKVLLAEEGIAPLSSAGPGKEEKLLFGEGFSPLLPVQTIKEEEIQPGEEMPHLARPIKVESPPLEEWPSPAPSFKEESSHSWEDSSQSPTPRPKKSYSGLRSPTRCVSEMLVIQHRERRERSRSRRKQHLLPPCVDEPELLFSEGPSTSRWAAELPFPADSSDPASQLSYSQEVGGPFKTPIKETLPISSTPSKSVLPRAPESWRLTPPAKVGGLDFSPVQTSQGASDPLPDPLGLMDLSTTPLQSAPPLESPQRLLSSEPLDLISVPFGNSSPSDIDVPKPGSPEPQVSGLAANRSLTEGLVLDTMNDSLSKILLDISFPGLDEDPLGPDNINWSQFIPELQ",binds
5,"FOXM1(L656A)-3×FLAG (protein, UniProt Q08050 1-763) MKTSPRRPLILKRRRLPLPVQNAPSETSEEEPKRSPAQQESNQAEASKEVAESNSCKFPAGIKIINHPTMPNTQVVAIPNNANIHSIITALTAKGKESGSSGPNKFILISCGGAPTQPPGLRPQTQTSYDAKRTEVTLETLGPKPAARDVNLPRPPGALCEQKRETCADGEAAGCTINNSLSNIQWLRKMSSDGLGSRSIKQEMEEKENCHLEQRQVKVEEPSRPSASWQNSVSERPPYSYMAMIQFAINSTERKRMTLKDIYTWIEDHFPYFKHIAKPGWKNSIRHNLSLHDMFVRETSANGKVSFWTIHPSANRYLTLDQVFKPLDPGSPQLPEHLESQQKRPNPELRRNMTIKTELPLGARRKMKPLLPRVSSYLVPIQFPVNQSLVLQPSVKVPLPLAASLMSSELARHSKRVRIAPKVLLAEEGIAPLSSAGPGKEEKLLFGEGFSPLLPVQTIKEEEIQPGEEMPHLARPIKVESPPLEEWPSPAPSFKEESSHSWEDSSQSPTPRPKKSYSGLRSPTRCVSEMLVIQHRERRERSRSRRKQHLLPPCVDEPELLFSEGPSTSRWAAELPFPADSSDPASQLSYSQEVGGPFKTPIKETLPISSTPSKSVLPRTPESWRLTPPAKVGGLDFSPVQTSQGASDPLPDPLGAMDLSTTPLQSAPPLESPQRLLSSEPLDLISVPFGNSSPSDIDVPKPGSPEPQVSGLAANRSLTEGLVLDTMNDSLSKILLDISFPGLDEDPLGPDNINWSQFIPELQ",binds

# Biological target: T2, FOXM1-3×FLAG (human)
# Experiment: co-IP; HEK293T co-transfected with FOXM1-3×FLAG and CDC25A-3×MYC; lysed in M-PER with protease and phosphatase inhibitors; anti-FLAG M2 resin overnight at 4°C; washed in TBS pH 7.2 with 0.1% Tween 20; eluted with 3×FLAG peptide; Western blot
row,Binder,binding
1,"CDC25A-3×MYC (protein, UniProt P30304 1-524) MELGPEPPHRRRLLFACSPPPASQPVVKALFGASAAGGLSPVTNLTVTMDQLQGLGSDYEQPLEVKNNSNLQRMGSSESTDSGFCLDSPGPLDSKENLENPMRRIHSLPQKLLGCSPALKRSHSDSLDHDIFQLIDPDENKENEAFEFKKPVRPVSRGCLHSHGLQEGKDLFTQRQNSAPARMLSSNERDSSEPGNFIPLFTPQSPVTATLSDEDDGFVDLLDGENLKNEEETPSCMASLWTAPLVMRTTNLDNRCKLFDSPSLCSSSTRSVLKRPERSQEESPPGSTKRRKSMSGASPKESTNPEKAHETLHQSLSLASSPKGTIENILDNDPRDLIGDFSKGYLFHTVAGKHQDLKYISPEIMASVLNGKFANLIKEFVIIDCRYPYEYEGGHIKGAVNLHMEEEVEDFLLKKPIVPTDGKRVIVVFHCEFSSERGPRMCRYVRERDRLGNEYPKLHYPELYVLKGGYKEFFMKCQSYCEPPSYRPMHHEDFKEDLKKFRTKSRTWAGEKSKREMYSRLKKL",binds
